From PubChem BioAssay AID2060331 (Molecular Pharmacology Branch, DTP, NCI, 2025)
Certain results were filed several times, with different values. The other results are left out here. There may be further records. Results that share an entry repeat one measurement across runs, samples, wells, individuals or studies.

Tested on: Hs578T multi-cell spheroids, viability
Test: Anticancer human tumor Hs578T cell line growth inhibition [IpAb];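 note: drug exposure lasted 7 days before readout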
Conditions: compound alone; run of 06/01/2021
From the text: Combinatorial screen of targeted agents with ipatasertib and abemaciclib in multi-cell type tumor spheroids
A high-throughput screen of multi-cell type tumor spheroids was designed to identify active combinations of targeted small molecules and ipatasertib or abemaciclib. Complex spheroids include a stromal component modeled by human endothelial cells (HUVEC) and fibroblasts modeled by human mesenchymal stem cells (MSCs). The concentration ranges selected for each drug and investigational agent were based upon clinically achievable concentrations if the clinical Cmax of the agent was known.
Compounds. […] If the clinical Cmax for an agent had not been determined, the highest concentration tested was 10 microM.
NCI60 Cell Culture. […] The optimal seeding densities for each of the cell lines at each time point assessed were determined prior to performing the concentration response studies. […]

## CC(C)NCC(C(=O)N1CCN(c2ncnc3c2C(C)CC3O)CC1)c1ccc(Cl)cc1 (stereo unspecified)
  IC50: 4.29 µM, 7.14 µM, > 10 µM, 4.9 µM, 6.73 µM, 2.79 µM, 5.7 µM, 4.13 µM, 4.31 µM, 2.6 µM, 6.68 µM
